From paper PMC4336329 (PLoS ONE, 2015)
Out of some 310,000 compounds screened, about 14,000 (4.5%) showed an effect of 50% or more. The effect is printed as a negative number. The list shows a part of the results.

Molecular target: human ether-à-go-go-related gene (hERG) potassium channel (human, UniProt Q12809)
Assay: primary screen, population patch clamp on CHO cells stably expressing hERG
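Also: peak tail current of the secondary pulse compared with the same well before compound.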

Chain of human ether-à-go-go-related gene (hERG) potassium channel (Q12809 whole entry, looked up): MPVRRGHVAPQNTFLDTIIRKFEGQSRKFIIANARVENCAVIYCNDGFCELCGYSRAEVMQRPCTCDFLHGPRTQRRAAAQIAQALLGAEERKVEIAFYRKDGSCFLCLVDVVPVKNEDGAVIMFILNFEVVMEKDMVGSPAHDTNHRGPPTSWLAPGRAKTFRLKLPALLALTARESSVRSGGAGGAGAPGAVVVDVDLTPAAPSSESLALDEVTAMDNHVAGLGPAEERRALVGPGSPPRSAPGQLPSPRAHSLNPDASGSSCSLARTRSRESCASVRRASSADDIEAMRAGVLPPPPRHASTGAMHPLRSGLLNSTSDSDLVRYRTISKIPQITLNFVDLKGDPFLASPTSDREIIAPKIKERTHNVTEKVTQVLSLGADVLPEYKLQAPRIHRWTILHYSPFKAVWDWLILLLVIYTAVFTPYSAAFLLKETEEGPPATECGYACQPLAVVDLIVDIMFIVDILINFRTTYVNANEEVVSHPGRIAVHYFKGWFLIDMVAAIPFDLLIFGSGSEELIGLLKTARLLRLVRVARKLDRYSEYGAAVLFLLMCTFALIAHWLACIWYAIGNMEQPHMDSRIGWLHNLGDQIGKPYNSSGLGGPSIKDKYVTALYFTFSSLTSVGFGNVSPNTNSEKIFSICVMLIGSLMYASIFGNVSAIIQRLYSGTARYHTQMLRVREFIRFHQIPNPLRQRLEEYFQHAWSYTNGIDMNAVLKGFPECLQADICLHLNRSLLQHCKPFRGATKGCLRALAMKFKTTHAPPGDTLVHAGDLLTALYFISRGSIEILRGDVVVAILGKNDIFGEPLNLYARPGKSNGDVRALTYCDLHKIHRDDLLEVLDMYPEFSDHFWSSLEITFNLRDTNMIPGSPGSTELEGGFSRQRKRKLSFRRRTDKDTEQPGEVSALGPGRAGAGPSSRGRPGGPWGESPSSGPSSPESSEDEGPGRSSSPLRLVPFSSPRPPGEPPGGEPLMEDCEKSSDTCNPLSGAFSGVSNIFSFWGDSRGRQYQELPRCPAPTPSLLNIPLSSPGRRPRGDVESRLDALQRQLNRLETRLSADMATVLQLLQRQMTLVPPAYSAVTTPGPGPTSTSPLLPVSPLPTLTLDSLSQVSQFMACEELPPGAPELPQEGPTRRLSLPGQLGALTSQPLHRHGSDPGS

Row | Compound | hERG current change (%, negative = inhibition) at 10uM [%]
1 | O=C(NN=C1CCCC1)c1cc(O)cc(O)c1 | 11.6
2 | COc1ccc(-c2cc(C(F)(F)F)n3nc(C(=O)O)nc3n2)cc1 | 18.9
3 | CC(C)[C@@H]1NC(=O)c2cc([N+](=O)[O-])cc(I)c2NCCC[C@@H](C(=O)NC(CC(=O)O)C(N)=O)NC(=O)[C@H](CO)NC1=O (stereo partly shown) | -23
4 | COc1ccc(C(=O)NC2(C(F)(F)F)NC(=O)N(CCCc3ccccc3)C2=O)c(OC)c1OC (stereo not shown) | -3.76
5 | Cc1nccn1Cc1ccccc1 | 25.1
6 | CN(c1ccccc1)S(=O)(=O)c1ccc(C(=O)NNC(=O)c2ccccc2)cc1 | 2.19
7 | CC(C)OC(=O)NCCOC(=O)Nc1ccccc1Cl | 21.6
8 | CCN(C(=O)c1cc(S(=O)(=O)N2CCCC2)ccc1C)C1CCS(=O)(=O)C1 (stereo not shown) | 0.93
9 | CCN(CC)S(=O)(=O)c1cc(NC(=O)c2cccc(N3C(=O)CCC3=O)c2)ccc1Cl | -29.3
10 | Cc1nc(SCC(=O)Nc2ccc(OCc3ccccc3)cc2)n[nH]1 | 9.02
11 | O=C1NC(=O)/C(=C/c2ccccc2Cl)N1 | 13.2
12 | O=C1NC(=O)C(c2ccccc2)(c2ccc(O)cc2)N1 (stereo not shown) | -7.98
13 | O=C(NC(=O)c1ccccc1)Nc1ccccc1 | 17
14 | COC(=O)c1c(C(=O)OC)c2oc3ccccc3n2c1Cl | -15.3
15 | CC(=O)OCn1nnc2ccccc2c1=O | 11.5
16 | CN1CCCC(C(=O)c2ccc(-c3ccccc3)cc2)C1 (stereo not shown) | -25.9
17 | CN(C)NC(=O)c1csnc1-c1c(Cl)cccc1Cl | 18.8
18 | Cc1c(C(=O)N2CCCC(C(F)(F)F)C2)oc2ccccc12 (stereo not shown) | -17.2
19 | O=C(NCc1cccc(Br)c1)C1CC(c2cc(C(F)(F)F)cc(C(F)(F)F)c2)=NO1 (stereo not shown) | -1.53
20 | Cn1c(C(F)(F)F)nc2c(=O)oc3ccccc3c21 | -7.65
21 | Cc1ccc(NC(=O)CSc2nc(N)c(-c3ccccc3)c(=O)[nH]2)cc1Cl | 22.9
22 | Cc1cc(C)cc(N2CCN(C(=O)N3CCOCC3)CC2)c1 | 10.4

Row | Compound | hERG current change (%, negative = inhibition) at 10uM [%]
23 | Cc1ccc(SC/C(O)=C(\C#N)c2nc3ccccc3n2C)cc1 | 6.24
24 | Cc1ccc(-c2n[nH]c(=S)n2Cc2ccccc2)cc1 | -1.34
25 | OCCN1CCN(Cc2nc(-c3cccc(Cl)c3)no2)CC1 | -11.6
26 | COn1c(C)c(C(C)=O)c2c3nonc3ccc21 | 4.6
27 | COc1cc(/C(=C/c2ccccc2)c2ccccc2)c2c(c1)oc1ccccc12 | 11
28 | CC(=O)Nc1cccc(Oc2nc(-c3ccccn3)nc3ccccc23)c1 | 7.44
29 | Cc1ccc(-c2cc(C(=O)N3CCCC(C(F)(F)F)C3)c3ccccc3n2)o1 (stereo not shown) | -29.8
30 | Cc1cccc(NC(=O)c2ccc(S(=O)(=O)N3CCOCC3)cc2)c1C | 15.6
31 | CCOc1ccc(NC(=O)CN2C(=O)NC3(CCCC3)C2=O)cc1S(=O)(=O)N1CCCCC1 | 12.1
32 | COc1ccccc1NC(=O)C(=O)NCC(c1ccco1)N1CCc2ccccc2C1 (stereo not shown) | 11.1
33 | O=C1CC(c2ccccc2)NN1 (stereo not shown) | 29.4
34 | CC(=N[C@@H]1CCCC[C@H]1N=C(C)c1ccccc1O)c1ccccc1O | 6.21
35 | Cl.O=C(O)CN1CCCCC1 | 7.87
36 | CC(=O)Nc1cc(C(C)C)c(O)c(C(C)C)c1 | -4.37
37 | CCOc1cccc(/C=C/C(=O)O)c1 | 14.6
38 | COc1ccc2c(C)cc(SCC(=O)N(C)C3CCS(=O)(=O)C3)nc2c1 (stereo not shown) | -14
39 | COc1ccc(Cn2c(=O)[nH]c3cc(C(=O)NCCCOC(C)C)ccc3c2=O)cc1 | -4.13
40 | COc1ccc(-n2c(SCC(=O)N3CCCC3)nc3ccccc3c2=O)cc1 | 16
41 | Cc1cc(NC(=O)C2CC2)ncc1NC(=O)c1ccccn1 | 21.7
42 | O=C(COc1ccccc1)N(Cc1ccccc1)c1nc(-c2ccccc2)cs1 | 3.43
43 | CN(C)S(=O)(=O)c1cc(NC(=O)CSc2cccc[n+]2[O-])ccc1Cl | 9.64
44 | C#CCOCCOCCOCCNc1nc(N2CCN(C(=O)[C@H](CCC(=O)O)n3cc(C(N)Cc4ccc(O)cc4)nn3)CC2)nc(N2CCN(C(=O)[C@H](Cc3cc4ccccc4[nH]3)n3cc(C(N)[C@H](C)CC)nn3)CC2)n1.Cl (stereo partly shown) | 5.43

Row | Compound | hERG current change (%, negative = inhibition) at 10uM [%]
45 | CCc1cc(=O)oc2c3c(cc(OCC(=O)NCc4cccnc4)c12)OC(C)(C)CC3 | -32.9
46 | COc1ccc(CN2CCNC(=O)C2CC(=O)N(C)CCC2CCOCC2)cc1OC (stereo not shown) | 21.7
47 | Nc1ccc2c(c1)Cc1ccccc1-2 | -2.79
48 | O=C(O)C1CCCCC1C(=O)N1CCCC1 (stereo not shown) | 19
49 | CC(=O)c1ccc(-n2nnnc2SCC(=O)Nc2sc(C)c(C)c2C#N)cc1 | 2.43
50 | CCOc1ccc(C(=O)NCc2cccnc2)cc1[N+](=O)[O-] | -76
51 | CCOC(=O)c1ccccc1NC(=O)Cc1sc(-c2cccnc2)nc1-c1ccc(C)cc1 | 12.7
52 | Cc1nc2sc(C(c3ccco3)N3CCN(C(c4ccccc4)c4ccccc4)CC3)c(O)n2n1 (stereo not shown) | -2.18
53 | N#C/C(=C/c1ccc(O)c(O)c1)c1nc2ccccc2[nH]1 | 16.3
54 | COc1cc(OC)cc(-c2nc3ccccc3c(=O)n2NC(=O)c2cccnc2Cl)c1 | 21.5
55 | Cc1[nH]nc(SCC(=O)N2CCCCCC2)c1[N+](=O)[O-] | 3.4
56 | O=C(NCc1ccccc1)c1ccc(Oc2ccc(C(=O)NCc3ccccc3)cc2)cc1 | -3.44
57 | COc1ccccc1NC(=O)c1cccc(NC(=O)c2ccco2)c1 | -16.1
58 | CCN(CC)CCOC(=O)c1ccc([N+](=O)[O-])cc1.Cl | -23.1
59 | CCOC(=O)N1CCN(C(=O)c2ccc3c(=O)n(CCc4ccc(OC)c(OC)c4)c(=O)[nH]c3c2)CC1 | 17
60 | O=C(CN(C1CCCCC1)C1CCCCC1)N1CCc2ccccc2C1.O=C(O)C(=O)O | -25.2
61 | CC1CCCN(c2cc3c(cc2[N+](=O)[O-])C(=O)N(c2ccccc2)C3=O)C1 (stereo not shown) | 15.2
62 | Cc1ccc(S(=O)(=O)Cc2ccc(C(=O)NCc3ccc4c(c3)OCO4)o2)cc1 | -23.2
63 | COc1cccc(C(=O)N2CCN(C(=O)c3ccc(-c4ccccc4)cc3)CC2)c1OC | -26
64 | COC(=O)c1ccc2[nH]c(C(C)(C)O)c(C)c2c1 | 12.1
65 | Cc1c(C(=O)Nc2ccc(Cl)cc2)c2ccccn2c1C(=O)c1ccc([N+](=O)[O-])cc1 | -6.62
66 | CC(Oc1ccc2c3c(c(=O)oc2c1)CCC3)C(=O)NCCCn1ccnc1 (stereo not shown) | 14.6

Row | Compound | hERG current change (%, negative = inhibition) at 10uM [%]
67 | O=C1[C@H]2[C@@H](/C=C/c3ccccc3)N3C(=O)CN(CCO)C(=O)[C@@]3(Cc3ccccc3)[C@H]2C(=O)N1c1ccccc1 | 27.7
68 | O=C(c1ccccc1)c1ccc(C(=O)N2CCCC(C(F)(F)F)C2)cc1 (stereo not shown) | -6.03
69 | COc1ccccc1S(=O)(=O)N1CCN(S(=O)(=O)c2cccs2)CC1 | 5.24
70 | CC(=O)Nc1ccc(S(=O)(=O)N(C)CC(=O)OCC(=O)NNC(=O)c2ccccc2F)cc1 | 11.8
71 | COc1cc(CNCC(C)C)cc(Br)c1OCC(=O)Nc1ccccc1.Cl | -24.4
72 | Cc1nn(C)cc1CNC(=O)Nc1cccc(Cl)c1 | 1.45
73 | Cc1cccc2nc(COc3ccc(-c4ccccc4)cc3)cn12 | -6.63
74 | C[C@H](NC(=O)c1nc[nH]c1C(=O)NCCCCC[NH3+])C(=O)OCc1ccccc1.[Cl-] | 8.35
75 | COc1ccccc1NC(=O)CC1C(=O)NCCN1C(=O)Nc1ccccc1 (stereo not shown) | -3.9
76 | NC(=O)CC(NC(=O)Cc1cccc2ccccc12)c1ccc(NCc2ccccn2)c([N+](=O)[O-])c1 (stereo not shown) | 10.1
77 | COc1ccc(Cn2c(=O)[nH]c3cc(C(=O)NCCCN4CCCCC4)ccc3c2=O)cc1 | -26.5
78 | COc1ccc(C=O)cc1Cn1ccnc1.Cl | 11.2
79 | Cc1ccc2nc(Nc3ccccc3)c(/C=N/O)c(=O)n2c1 | -2.04
80 | O=C(O)c1cc2c(cc1Br)OCCCO2 | -0.348
81 | Cc1cc2c(cc1C)C(=O)NC(C)(C)C2 | 8.73
82 | Cc1ccc(S(=O)(=O)N2CCOCC2)cc1C(=O)OC(C)C(=O)NC1CCCC1 (stereo not shown) | -5.68
83 | Cc1ccc2nc(N3CCC(C(=O)O)CC3)nc(-c3ccccc3)c2c1 | -1.95
84 | O=C(CCS(=O)(=O)c1ccc(Cl)cc1)N1CCN(S(=O)(=O)c2cccs2)CC1 | -28.3
85 | CN(C)c1ccc(NC(=O)CSc2nnc(-c3ccco3)c(-c3ccco3)n2)cc1 | 6.58
